In publication PMC9120069:
These are yes or no findings as the source states them, for the method shown. In cells and extracts the contact can be indirect. Some results given as binding are weak or reduced against the parent protein; the word gives no strength. For part of these data: Where a sequence is shown, tags or fusion partners need not be part of it.

Protein sequences, listed by entry. Tags and fused reporters are not part of them. Residues count along the entry.
UniProt Q8NE86, residues 51-351: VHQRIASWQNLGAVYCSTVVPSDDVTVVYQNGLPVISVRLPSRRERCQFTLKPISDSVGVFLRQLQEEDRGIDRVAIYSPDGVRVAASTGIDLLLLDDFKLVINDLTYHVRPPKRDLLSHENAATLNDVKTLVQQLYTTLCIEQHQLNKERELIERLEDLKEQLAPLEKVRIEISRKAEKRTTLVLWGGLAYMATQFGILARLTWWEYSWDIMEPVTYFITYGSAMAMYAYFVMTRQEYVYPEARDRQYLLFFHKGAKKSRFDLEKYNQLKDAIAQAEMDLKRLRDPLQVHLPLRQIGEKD
UniProt P19404, residues 33-249: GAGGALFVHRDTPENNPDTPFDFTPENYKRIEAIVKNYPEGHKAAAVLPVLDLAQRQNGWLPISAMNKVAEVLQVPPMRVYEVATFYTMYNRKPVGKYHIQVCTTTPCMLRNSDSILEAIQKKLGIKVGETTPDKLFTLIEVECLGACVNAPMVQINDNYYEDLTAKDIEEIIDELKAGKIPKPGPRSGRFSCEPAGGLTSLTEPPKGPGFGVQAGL
UniProt O75380, residues 29-124: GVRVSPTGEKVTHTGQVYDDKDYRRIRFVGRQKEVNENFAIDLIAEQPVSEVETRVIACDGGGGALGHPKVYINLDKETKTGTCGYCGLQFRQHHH
UniProt O95182: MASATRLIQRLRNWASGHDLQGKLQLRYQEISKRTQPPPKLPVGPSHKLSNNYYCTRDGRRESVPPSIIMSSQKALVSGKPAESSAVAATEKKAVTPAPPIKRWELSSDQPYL
UniProt Q9P0J0: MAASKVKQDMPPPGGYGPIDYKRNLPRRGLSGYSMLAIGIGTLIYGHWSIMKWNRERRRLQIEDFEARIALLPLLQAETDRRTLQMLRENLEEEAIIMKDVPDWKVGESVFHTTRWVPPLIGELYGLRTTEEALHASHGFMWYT
UniProt O95139: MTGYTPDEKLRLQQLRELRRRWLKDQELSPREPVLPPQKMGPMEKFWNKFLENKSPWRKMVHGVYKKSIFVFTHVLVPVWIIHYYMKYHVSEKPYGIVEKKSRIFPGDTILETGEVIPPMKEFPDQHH
UniProt O95299, residues 36-355: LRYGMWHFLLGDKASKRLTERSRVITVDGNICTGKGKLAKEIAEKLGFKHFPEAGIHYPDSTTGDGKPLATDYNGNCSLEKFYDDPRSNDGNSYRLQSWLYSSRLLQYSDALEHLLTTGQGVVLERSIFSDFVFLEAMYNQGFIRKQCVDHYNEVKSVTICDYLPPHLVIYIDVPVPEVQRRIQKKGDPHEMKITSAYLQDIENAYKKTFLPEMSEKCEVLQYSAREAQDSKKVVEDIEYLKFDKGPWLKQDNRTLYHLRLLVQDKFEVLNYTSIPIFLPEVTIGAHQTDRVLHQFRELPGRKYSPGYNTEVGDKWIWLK

Assays:
MCU-mCerulean [1] = target: MCU-mCerulean (UniProt Q8NE86); assay: FRET or BRET; FRET by flow cytometry in live HEK293T cells co-transfected with MCU-mCerulean and an mVenus-tagged construct; 100 µM cycloheximide ~2 h before analysis; donor FRET efficiency against mVenus fluorescence
MCU-mCerulean [2] = target: MCU-mCerulean (UniProt Q8NE86); assay: FRET or BRET; acceptor photobleaching FRET by confocal imaging of transfected cells fixed in 4% paraformaldehyde
[3] = target: Flag-tagged MCU (pore-forming subunit of the mitochondrial calcium uniporter) (UniProt Q8NE86); assay: co-IP; as the FLAG co-IP in 1% digitonin, HEK293T cells treated with rotenone beforehand
[4] = target: Flag-tagged MCU (pore-forming subunit of the mitochondrial calcium uniporter) (UniProt Q8NE86); assay: co-IP; FLAG antibody beads on cleared lysates of HEK293T cells stably expressing MCU-Flag or SDHB-Flag; 1% digitonin, 50 mM Tris, 150 mM NaCl; overnight at 4 °C; Western blot
[5] = target: T1, Flag-tagged succinate dehydrogenase complex subunit B (UniProt P21912); assay: as above
T1 sequence: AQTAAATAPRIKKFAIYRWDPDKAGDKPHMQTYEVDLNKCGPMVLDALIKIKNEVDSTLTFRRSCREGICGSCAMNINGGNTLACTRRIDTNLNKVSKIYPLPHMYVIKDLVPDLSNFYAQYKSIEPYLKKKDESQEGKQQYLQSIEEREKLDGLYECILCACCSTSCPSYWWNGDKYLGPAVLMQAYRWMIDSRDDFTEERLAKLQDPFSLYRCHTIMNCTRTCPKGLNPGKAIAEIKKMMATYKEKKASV

Row | Substance | binding (MCU-mCerulean [1]) | also measured
1 | NDUFV2 tagged with mVenus (from UniProt P19404 33-249) | no binding | 
2 | NDUFS6 tagged with mVenus (from UniProt O75380 29-124) | no binding | 
3 | NDUFA7 tagged with mVenus (from UniProt O95182 1-113) | no binding | 
4 | NDUFA13 (from UniProt Q9P0J0 1-144) |  | binding [3]: no binding (condition: cells treated with rotenone); binding [4]: binds; binding [5]: no binding

Further lines, with some results ahead:

Row | binding (MCU-mCerulean [1]) | Substance | also measured
5 | no binding | NDUFB6 tagged with mVenus (from UniProt O95139 1-128) | 
6 | binds | NDUFA10 tagged with mVenus (from UniProt O95299 36-355) | binding (MCU-mCerulean [2]): binds
